Laboratory results as given in PubChem BioAssay AID1865 (National Center for Advancing Translational Sciences (NCATS), 2009).
Where “and” joins values, the source holds several entries; their conditions need not be identical. Equal values may be shown once. Screen size: about 280,000 compounds; about 540 (0.19%) were called active. This list was built around the results that the source calls inconclusive (neither active nor inactive); the mix of calls is not that of the screen. The call rests on the fitted dose curve; in most records, active means well fitted activation curve with a large enough effect; inconclusive means small, poorly fitted or top-dose-only effect; inactive means flat fitted curve, though single readings scatter. A potency beside an inconclusive call is a rough fit, not a confirmed value.

test: Quantitative High-Throughput Screen for Regulators of Epigenetic Control; conditions: murine LDR cells, GFP reporter derepression, 30 h; series mostly up to 53.9 µM; further: nearly all actives have a fitted effect of over 60% in size
Procedure, shortened: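 In this reporter-derepression format, murine cells bearing a silenced integrated CMV-GFP locus incubate with test compound (30 h, 37 C), then are washed and imaged; fluorescent objects of 20–120 um count as induced cells.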
Potency means the concentration at half of the fitted maximal effect; tags describe the fitted curve by direction and shape.

Compound	Potency
COc1cc(OC)c(OC)cc1/C=C1/C(=O)NC(=O)N(Cc2ccccc2)C1=O	inactive
Nc1c([N+](=O)[O-])cc(F)c(N2CCNCC2)c1Br	inconclusive: 35.5 µM [activator, single point]
COCCNC(=O)c1c(NC(=O)c2ccc(Br)o2)n(Cc2ccccc2)c2nc3ccccc3nc12	inconclusive: 11.2 µM [activator, partial curve]
Cc1cc(C)nc(/N=C(\N)c2c(O)[nH]c(=O)[nH]c2=O)n1	inconclusive: 31.6 µM [activator, single point]
C=C1C([C@@H](O)C[C@H](C)C2O[C@@]3(CCCCO3)CC[C@H]2C)OC2CC[C@@]3(CC[C@@H](/C=C/[C@@H](C)C4CC(C)=C[C@]5(O4)O[C@H](C[C@@](C)(O)C(=O)O)CCC5O)O3)OC2[C@@H]1O (some centres not stated)	inconclusive: 12.6 µM [activator, partial curve]
C[C@H]1CC[C@@]2(NC1)O[C@@H]1C[C@H]3[C@@H]4CC[C@@H]5C[C@@H](O)CC[C@@]5(C)[C@@H]4CC[C@]3(C)[C@@H]1[C@@H]2C	inactive
CCCCC/C=C\C/C=C\C/C=C\C/C=C\CCCC(=O)NCCc1ccc(O)c(O)c1	inconclusive: 28.2 µM [activator, single point] and inconclusive: 3.16 µM [activator, single point]
CCN1C(=O)C(=Cc2ccc(C)s2)C(=O)N(CC)C1=S	inconclusive: 31.6 µM [activator, single point]
C=CCn1c(O)c(C=NCCCOc2ccc(CC)cc2)c(=O)[nH]c1=S	inconclusive: 31.6 µM [activator, single point]
COc1cc(C(c2c(C)[nH]n(-c3ccccc3)c2=O)c2c(C)[nH]n(-c3ccccc3)c2=O)cc(OC)c1OC	inconclusive: 31.6 µM [activator, single point]
O=C1NC(=O)N(Cc2ccco2)C(=O)/C1=C\c1ccc(-c2ccc(F)cc2)o1	inconclusive: 28.2 µM [activator, single point]
CCN(CC)c1ccc(N=Cc2c(O)n(CCC3=CCCCC3)c(=O)[nH]c2=O)cc1	active: 22.4 µM
CC(=O)O[C@H]1C(=O)[C@@]2(C)C([C@H](OC(=O)c3ccccc3)[C@]3(O)C[C@H](OC(=O)[C@H](O)[C@@H](NC(=O)c4ccccc4)c4ccccc4)C(C)=C1C3(C)C)[C@]1(OC(C)=O)CO[C@@H]1C[C@@H]2OC(=O)[C@H](C)NC(=O)c1ccc(-c2c3ccc(=O)cc-3oc3cc(O)ccc23)c(C(=O)O)c1 (some centres not stated)	inconclusive: 0.224 µM [activator, partial curve]
C/C(CC(c1ccccc1)c1c(O)c2ccccc2oc1=O)=N\NC(N)=S (configuration not stated)	inconclusive: 31.6 µM [activator, single point]
COc1ccc(N2C(=O)NC(=O)/C(=C\c3ccc([N+](=O)[O-])s3)C2=O)cc1	inconclusive: 5.62 µM [activator, single point]
C/C=C(\C)C(=O)OC1C(C)=C2C(C1OC(=O)CCCCC)C(C)(OC(C)=O)CC(OC(=O)CCC)C1(O)C2OC(=O)C1(C)O (configuration not stated)	inconclusive: 1.58 µM [activator, partial curve, poor fit]
O=C1NC(=O)N(CCC2=CCCCC2)C(=O)/C1=C\c1cccs1	inconclusive: 31.6 µM [activator, single point]
NC1CCc2cc(O)c(O)cc2C1 (configuration not stated)	inconclusive: 31.6 µM [activator, single point]
Cc1ccc(N2C(=O)NC(=O)/C(=C/c3cnc(-c4ccccc4)nc3)C2=O)cc1C	inactive
C[C@@H]1OC=C2[C@@H](O)[C@H]3O[C@H]3C(=O)[C@@]23[C@H]1[C@H]1C2=C([C@@H](O)[C@H]4O[C@@H]4C2=O)[C@@H]3O[C@@H]1C	inconclusive: 3.98 µM [activator, single point]
CN1C(=O)/C(=C\c2ccc(N3CCCCC3)o2)C(=O)NC1=S	inconclusive: 2.24 µM [activator, single point]
CCCCC/C=C\C/C=C\C/C=C\C/C=C\CCCC(=O)NC1CC1	inactive
